# Data as given in PubChem BioAssay AID485344 (National Center for Advancing Translational Sciences (NCATS), 2010).
# Several values for one entry are separate records, joined by “and”; a condition that tells them apart may be missing. Equal values may be shown once. Among all 340,000 compounds or so, about 6,900 (2%) were called active. Rule as the data show it: active = inhibition above about 30%; inactive = below that, where a call was filed. The entries are a selection whose mix differs from that of the whole data set. Entries without a call were filed so in the source.
# Target: D(2) dopamine receptor (Homo sapiens) (UniProt P14416)
# Sequence of UniProt P14416 (P14416 whole entry, looked up): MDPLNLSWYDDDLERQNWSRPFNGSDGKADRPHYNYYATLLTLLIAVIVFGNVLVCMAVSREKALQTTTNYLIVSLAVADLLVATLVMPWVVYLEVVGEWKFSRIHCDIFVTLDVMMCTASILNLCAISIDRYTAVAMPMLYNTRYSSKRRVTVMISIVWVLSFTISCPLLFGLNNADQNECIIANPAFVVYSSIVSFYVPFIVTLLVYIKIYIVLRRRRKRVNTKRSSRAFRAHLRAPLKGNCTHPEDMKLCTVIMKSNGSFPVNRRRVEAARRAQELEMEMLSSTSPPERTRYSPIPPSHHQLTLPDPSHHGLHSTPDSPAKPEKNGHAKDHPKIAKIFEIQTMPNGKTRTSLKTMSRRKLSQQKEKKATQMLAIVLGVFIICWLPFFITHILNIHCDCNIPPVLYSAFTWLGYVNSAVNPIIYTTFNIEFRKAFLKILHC
# Test: HTS Assay for Allosteric Antagonists of the Human D2 Dopamine Receptor: Primary Screen for Antagonists; also: 0% is about no effect
# Conditions: HEK293 TREx D2 cells, calcium flux, dopamine EC80; at 10 µM; stronger effect = higher value
# In short: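 Tetracycline-induced HEK293 T-REx cells expressing D2 force-coupled to calcium signalling were dye-loaded, exposed to compound for 180 s, then challenged with an EC80 of dopamine; calcium flux was followed kinetically for a further 180 s.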
row,Structure (SMILES),inhibition
1,Cc1cccc(CSc2cn(CC(=O)N3CCOCC3)c3ccccc23)c1,active: 34.8% and -6.94%
2,CC(=O)NC1CC2CCC(C1)N2Cc1ccc(C)cc1 (stereo unspecified),active: 50.9%
3,Cc1cccc(-c2nc(SCc3cc(=O)c4c(C)cc(C)cc4[nH]3)n[nH]2)c1,4.28%
4,CCCn1c(=N)c(C(=O)NCC2CCCO2)cc2c(=O)n3cc(C)ccc3nc21 (stereo unspecified),1.1%
5,COCCN(CCOC)S(=O)(=O)c1ccc(C(=O)Nc2sc3c(c2C(N)=O)CCCC3)cc1,-0.957%
6,COc1ccc(NC(=O)CSc2nc(C)cc(C)c2C(=O)Nc2ccccc2OC)cc1,-22.2%
7,Cc1ccc(CN2CCN(CC3CC4C=CC3C4)CC2)cc1 (stereo unspecified),active: 65.4%
8,COc1ccc(S(=O)(=O)NCC(c2ccco2)S(=O)(=O)c2cccs2)cc1F (stereo unspecified),18.1%
9,Cc1ccc(CCNC(=O)C2CCN(S(=O)(=O)c3ccc4c(ccn4C)c3)CC2)cc1,1.83%
10,Cc1ccc(-c2nc3c4c(-c5ccccc5)c(-c5ccccc5)oc4ncn3n2)cc1,14.7%
11,CCN1CCN(Cc2ccc(NC(=O)c3ccc(C)c(NC(=O)c4c[nH]c5cc(C(F)(F)F)ccc5c4=O)c3)cc2C(F)(F)F)CC1,active: 36.1%
12,Cc1ccc(CNC(=O)CSc2nc3ccccc3nc2Cc2ccc(C)cc2)cc1,-2.2%
13,CCOc1ccc(NC(=O)c2c(C)oc3nc(C)nc(N4CCOCC4)c23)cc1,1.28%
14,Cc1oc(-c2ccc(Cl)cc2)nc1Cn1c(=O)cc(C)c2c(C)nn(-c3ccccc3)c21,3.36%
15,COc1ccccc1CNC(=O)CCCCn1c(=O)c2ccccc2n(Cc2ccccc2F)c1=O,-9.58%
16,CC1=CC(=O)CC2C1(C)CCC(C)C2(C)CCC(C)CC(=O)O (stereo unspecified),active: 32.3%
17,Cc1nn2cc(-c3ccc(OC(C)C)cc3)nc2s1,-4.73%
18,O=C(CCSCc1cccc(Cl)c1)NCCc1ccc(Cl)cc1,-18.1%
19,O=C(c1ccccc1)N1CCc2cc(CNS(=O)(=O)c3ccc(Cl)s3)ccc21,1.94%
20,CSc1ccc(/C=N/n2c(C)nnc2C)cc1,active: 35.3%
21,COc1ccc(-n2c(SCC(=O)NCc3ccc(F)cc3)nc3c([nH]c4ccccc43)c2=O)cc1,6.16%

row,Structure (SMILES),inhibition
1,COc1ccc(NC(=O)c2cnc(N3CCCC3)nc2)cc1OC,-16.2%
2,CCCC1=Nc2cc(C(=O)N3CCC(C(=O)OCC)CC3)ccc2Sc2ccccc21,-8.98%
3,Cc1cccc(NC(=O)C2CCCN2S(=O)(=O)c2ccc3c(c2)n(C)c(=O)c(=O)n3C)c1 (stereo unspecified),9.83%
4,Cc1cc(C)c2oc(-c3cccc(NC(=O)c4ccc(-c5cccc([N+](=O)[O-])c5)o4)c3)nc2c1,0.461%
5,O=C(NCc1cccc(F)c1)c1ccccc1NC(=O)c1nsc2ccccc12,4.07%
6,COc1ccccc1C(=O)N(c1ccc(C)cc1)S(=O)(=O)c1ccc(Cl)cc1,4.94%
7,CCC(=O)N1c2ccccc2CC1C(=O)NCc1cc(Br)ccc1OC (stereo unspecified),-5.08%
8,Cc1ccc2oc3c(c(=O)c2c1)C(c1ccc(O)cc1)N(c1nc(C)c(C)s1)C3=O (stereo unspecified),20.2%
9,CCC(=O)Nc1nnc(S(=O)(=O)N2c3ccccc3CC2C)s1 (stereo unspecified),6.19%
10,Cc1ccc(CNc2nc3ccccc3n3cnnc23)cc1,-9.71%
11,Cc1csc2nc(COC(=O)c3ccc(NC(=O)C(C)Oc4ccccc4)cc3)cc(=O)n12 (stereo unspecified),2%
12,CCc1cccc(C)c1NS(=O)(=O)c1ccc2c(c1)CC(C)N2C(=O)C1CC1 (stereo unspecified),3.52%
13,COc1ccc(-c2noc(CSc3nc4ccccc4[nH]3)n2)cc1OC,16.8%
14,COc1ccc(S(=O)(=O)NCCc2csc3nc(-c4ccccc4)nn23)cc1OC,-21.4%
15,Fc1cccc(CSc2ccc(-c3cccs3)nn2)c1,12.1%
16,CCN1C(=O)C(O)(c2c[nH]c3ccccc23)c2cc(Br)ccc21 (stereo unspecified),10%
17,Cc1cccc(Cn2c(=O)n(-c3ccccc3C)c(=O)c3c2c2cc(C)ccc2n3C)c1,0.936%
18,Cc1cc(NC(=O)C2C3C(=O)N(CC4CCCO4)C(C(=O)NCc4ccccc4)C34C=CC2(C)O4)no1 (stereo unspecified),active: 33.5%
19,O=C(C1CCCN(S(=O)(=O)c2cccc3nsnc23)C1)N1CCN(c2cccc(Cl)c2)CC1 (stereo unspecified),12.1%
20,Cc1c(/C=C(\C#N)C(=O)NCc2ccccc2)cc(C#N)n1C,active: 36.5%
21,CCCN1CCc2nc(N3CCN(C)CC3)ncc2C1,-2.61%

row,Structure (SMILES),inhibition
1,CCN(CC)c1nn2c(=O)c(C(=O)NCCc3cccc(C)c3)cnc2s1,-4.06%
2,COc1ccc(C(=O)Nc2cccc(C(=O)OCc3cc(=O)n4c5c(sc4n3)CCCC5)c2)cc1,-10.3%
3,COc1cccc(CSc2nc3n(n2)C(CC(C)C)C(C(=O)Nc2ccccc2C)=C(C)N3)c1 (stereo unspecified),14.2%
4,Cc1ccc(CCNC(=O)CCCc2nnc3n(C)c(=O)c4sccc4n23)cc1,2.92%
5,COc1ccccc1-n1c(=O)n(C)c2c(C(N)=O)nc(-c3cccc(OC)c3OC)nc21,-7.3%
6,COc1ccc(CCNC(=O)CCc2c(C)nc3cc(-c4cccc(F)c4)nn3c2C)cc1OC,13.9%
7,Cc1ccc(S(=O)(=O)NCCc2nnc3ccc(SCC(=O)Nc4ccc(F)cc4F)nn23)cc1,-5.82%
8,CC(C)c1nn2c(=O)cc(COC(=O)c3ccc(NC(=O)c4cccs4)cc3)nc2s1,-17.8%
9,CCCOc1ccc(C(=O)N(Cc2ccco2)Cc2ccco2)cc1,4.3%
10,O=C(NCC(c1cccs1)S(=O)(=O)c1cccs1)c1c(F)cccc1F (stereo unspecified),-19.8%
11,COc1ccc(OC(=O)c2nc(SCc3ccccc3C)ncc2Cl)cc1,5.33%
12,Cc1ccccc1OCC(=O)Nc1ccccc1OCc1cc(=O)n2ccccc2n1,-14.1%
13,CCC(Sc1nc2n[nH]c(C)c2c(=N)n1-c1ccccc1Cl)C(=O)N(CC)CC (stereo unspecified),-12.2%
14,CCN(CCCNC(=O)Cn1ncc2c([nH]c3ccc(C)cc32)c1=O)c1ccccc1,-2.53%
15,N#Cc1cc2c(=O)n3ccccc3nc2n(-c2nnc(SCc3ccccc3Cl)s2)c1=O,3.65%
16,Cc1cccc(NC(=O)c2cc3c(=O)n(Cc4cccnc4)ccc3nc2C)c1,16.8%
17,COc1ccc(NC(=O)CCn2cnc3onc(-c4ccc(F)cc4)c3c2=O)cc1OC,-6.15%
18,Cc1sc2ncnc(NCC(c3ccco3)N3CCCC3)c2c1C (stereo unspecified),active: 32.1%
19,CC1Cn2c(C(=O)NCc3ccccc3Cl)cc3cccc(c32)S1 (stereo unspecified),0.34%
